Reference: PubChem BioAssay AID493131 (Broad Institute, 2011)
Hit rate of the full screen: of about 340,000 compounds, about 3,300 (0.97%) were called active. This list was built around the results that the source calls inconclusive (neither active nor inactive); the mix of calls is not that of the screen.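 How the source made its calls: active means mean activation above about 17%, with every replicate also reaching it (limit read from the data, passing the limit was not always enough); inconclusive means only one of the two conditions met; inactive means the rest.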

molecular target: Protein FosB (Mus musculus) (UniProt P13346); assay: enhancers of mouse delta FosB DNA binding – biochemical, fluorescence polarization, TAMRA-CDK5 oligo, single point, primary screen (AID 493131); settings: purified delta FosB, at 25 µM, active compounds read high, percent of positive-control signal above neutral wells;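 further: fluorescence polarization rise as delta FosB binds a TAMRA Cdk5 AP-1 oligo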
Sequence of UniProt P13346 (P13346 whole entry, looked up): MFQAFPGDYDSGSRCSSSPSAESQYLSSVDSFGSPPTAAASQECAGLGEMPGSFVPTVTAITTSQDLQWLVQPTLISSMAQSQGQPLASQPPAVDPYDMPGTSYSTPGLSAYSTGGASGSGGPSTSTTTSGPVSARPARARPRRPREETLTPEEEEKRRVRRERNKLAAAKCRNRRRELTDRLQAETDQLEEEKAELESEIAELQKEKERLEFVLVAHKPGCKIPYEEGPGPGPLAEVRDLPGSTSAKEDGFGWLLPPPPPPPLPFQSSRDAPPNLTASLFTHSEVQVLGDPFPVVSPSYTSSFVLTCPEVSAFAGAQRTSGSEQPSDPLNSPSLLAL

| Structure (SMILES) | activation |
| --- | --- |
| CC(C)CN(C(=O)COC(=O)CCc1nc2ccccc2s1)c1c(N)n(Cc2ccccc2)c(=O)[nH]c1=O | inconclusive: 18.5% |
| C=CCN1C(=O)/C(=C/C=C2/N(CC)c3ccc(S(=O)(=O)N(C)C)cc3N2CC)SC1=S | inconclusive: 18.1% |
| Cc1cc(C)cc(NC(=O)Cn2cnc3c(nnn3Cc3ccc(F)cc3)c2=O)c1 | inconclusive: 18.9% |
| CCOC(=O)Nc1cccc(NC(=O)c2cc(OC)cc(OC)c2)c1 | inactive: 1.02% |
| CSc1nc2ccc3nc(NC(=O)C4COc5ccccc5O4)sc3c2s1 (stereo unspecified) | active: 70.1% |
| O=C(Nc1ccc(-c2nc3ccccc3[nH]2)cc1)c1ccc(N2C(=O)CCC2=O)cc1 | active: 25.1% |
| CCOC(=O)c1cccc(NC(=O)c2ccc(NC(=O)c3ccco3)cc2)c1 | active: 16.3% |
| CCOc1ccc(C(=O)Nc2ccc(Cl)cn2)cc1Cl | inconclusive: 18.2% |
| O=C(Nc1ccc(F)c(Cl)c1)C1CC(=O)n2c(nc3ccccc32)N1 (stereo unspecified) | inconclusive: 17.9% |
| Cc1ccc(OCCSc2nc3ccccc3n2CC(=O)O)c(C(C)C)c1 | inactive: -4.7% |
| O=C(Nc1cccc2ncccc12)c1ccc(-c2ccc(Cl)cc2Cl)o1 | inconclusive: 19.2% |
| COc1ccc2nc(SCC(=O)NC3CC3)c(C#N)cc2c1 | inconclusive: 16.8% |
| CCCCN(CC)CCNc1c(N2CCN(C(=O)OCC)CC2)c(=O)c1=O | inactive: -1.63% |
| COc1ccc(NC(=O)CC(c2ccc(F)cc2)c2ccc(OC(C)C)cc2)cc1 (stereo unspecified) | inconclusive: 17.8% |
| CSc1cccc(-n2cc(-c3ccc4c(c3)OCO4)[nH]c2=O)c1 | inconclusive: 48.5% |
| CCCCCn1cnc2sc(CC)cc2c1=O | inactive: -8.8% |
| O=C(NCCN1CCc2ccccc2C1)Nc1ccc([N+](=O)[O-])cc1 | inactive: 8.76% |
| COc1ccc(-c2nc(Cn3c(SCc4ccc(F)cc4)nc4ccncc43)c(C)o2)cc1OC | inconclusive: 20.2% |
| COc1ccc(NC(=O)c2sc3nc(N4CCOCC4)c4c(c3c2N)CC(C)(C)OC4)c(OC)c1 | inactive: -9.71% |
| CC(=O)NC(c1ccc(Cl)cc1Cl)c1ccc2cccnc2c1O (stereo unspecified) | inactive: 2.91% |
| O=C(Nc1nc2ccccc2s1)c1ccc2c(c1)OCO2 | inconclusive: 22% |
| CCn1c(SCC(=O)Nc2ccc3c(c2)oc2ccccc23)nnc1-c1ccc(N)cc1 | inconclusive: 16% |

| Structure (SMILES) | activation |
| --- | --- |
| CC1CN(C(=O)c2ccccc2OCc2ccc(Cl)cc2Cl)CC(C)O1 (stereo unspecified) | inactive: -9.07% |
| O=C(NCCc1c[nH]c2ccccc12)C(=O)NCC(c1ccco1)N1CCN(c2ccc(F)cc2)CC1 (stereo unspecified) | inconclusive: 22.6% |
| O=C(N/N=C/c1ccncc1)c1cc2c(ccc3ccccc32)o1 | inconclusive: 28.5% |
| CCN(CCO)c1ncnc2c1sc1nc(CC(C)C)c3c(c12)CC(C)(C)OC3 | inactive: -13.8% |
| COc1ccccc1-c1sc2ccccc2c1-c1ccc(OCCN2CCCCC2)cc1 | inconclusive: 26.6% |
| COc1ccc(-n2nc3c(N4CCC(C(=O)NCc5ccccc5)CC4)nnc(C)c3c2C)cc1 | inconclusive: 17% |
| O=C(O)CC1S/C(=N/N=C/C2CC=CCC2)NC1=O (stereo unspecified) | inactive: 7.52% |
| CCOC(=O)N1CCC(N(C(=O)Nc2ccc(Cl)c(Cl)c2)C(C)CC)CC1 (stereo unspecified) | inactive: -7.24% |
| Cc1ccc2nc(-c3ccc(NC(=O)COC(=O)c4ccc(=O)[nH]c4)cc3)sc2c1 | inconclusive: 16.1% |
| COc1ccccc1CNCC(O)Cn1c2ccccc2c2ccccc21 (stereo unspecified) | inconclusive: 25% |
| Cc1csc(NC(=O)CSc2nc3ccccc3c3c2CCCC3)n1 | inconclusive: 16.4% |
| CCn1c2ccccc2c2cc(Nc3cc(C)nc4ncnn34)ccc21 | inactive: -14.2% |
| CCCCOc1ccc(/C=C/C(=O)OCC(=O)N2CC(=O)Nc3ccccc32)cc1OCC | inconclusive: 18.1% |
| CCCc1cc(=O)[nH]c(SCC(=O)c2c[nH]c3ccccc23)n1 | inconclusive: 18.8% |
| Cc1cc(S(=O)(=O)Nc2cc(C)c(O)c(C)c2)c(C)s1 | inactive: -2.12% |
| CCc1nn(CC(=O)NCCCc2ccccc2)c(=O)c2cc3cc(F)ccc3n12 | inconclusive: 16.3% |
| NC(N)=NS(=O)(=O)c1ccc(NC(=S)NC(=O)/C=C/c2cccs2)cc1 | active: 62.2% |
| COc1ccc(COC(=O)C2CCN(S(=O)(=O)c3ccc(C)cc3)CC2)cc1 | inactive: 0.501% |
| S=C(Nc1ccc(-c2nc3ccccc3[nH]2)cc1)Nc1cccnc1 | inconclusive: 20.4% |
| CC(C)CNC(=O)CN1C(=O)NC(Cc2c[nH]c3ccccc23)C1=O (stereo unspecified) | inactive: -3.38% |
| OCCNc1nc2ccccc2nc1NCCO | inactive: -6.77% |
| CCOc1cccc2sc(N(CCN(C)C)C(=O)c3cc4ccccc4cc3OC)nc12 | inconclusive: 18.6% |

| Structure (SMILES) | activation |
| --- | --- |
| CCOc1ccc(NC(=NCc2ccc3c(c2)OCO3)SC2CC(=O)N(c3ccc(OCC)cc3)C2=O)cc1 (stereo unspecified) | inconclusive: 16.3% |
| COc1ccccc1NC(=O)CSc1ncnc2c1oc1ccccc12 | inconclusive: 19.7% |
| O=C(CCn1c(=S)oc2ccccc21)NC1CCCCCC1 | inconclusive: 23.5% |
| O=C1NC(c2ccccc2)=CC(c2ccccc2O)N1 (stereo unspecified) | inconclusive: 16.6% |
| O=C(COC(=O)/C=C/c1cccc(Cl)c1)Nc1c(F)cccc1F | inconclusive: 19.3% |
| Cc1ccccc1OCCn1cc(/C=C(\C#N)C(=O)NCc2ccco2)c2ccccc21 | inconclusive: 20.2% |
| CC(=O)c1cc(-c2ccccc2)n(CC(=O)Nc2ccc(C)c(C)c2)c1C | inconclusive: 19.6% |
| CCOC(=O)C1(Cc2cccc(OC)c2)CCN(CC=C(C)C)CC1 | inactive: 0.145% |
| COCCN(C(=O)COC(=O)/C=C/c1ccc(OC)c(OC)c1)c1c(N)n(Cc2ccccc2)c(=O)[nH]c1=O | inconclusive: 19.1% |
| CC1(C)CC(=O)CC(=O)/C1=N\Nc1c(Cl)cc(Cl)cc1Cl | inactive: 3.4% |
| N#Cc1c(N)nc2c3c(sc(=N)c2c1N)NC(=O)CC3c1c(F)cccc1Cl (stereo unspecified) | inconclusive: 18.1% |
| Cc1ccc(CNC(=O)C2CCCN(S(=O)(=O)c3cccc4nonc34)C2)cc1 (stereo unspecified) | inconclusive: 22.2% |
| O=C(CSc1nnc(NC(=O)c2ccco2)s1)Nc1ccc(F)cc1F | active: 20% |
| CCn1nc(C)c(CNC(=O)Nc2ccc3c(c2)OCO3)c1C | inactive: 1.06% |
| Cc1cc(-c2nnc(SCC(=O)Nc3cccc(Cl)c3)n2N)n[nH]1 | inconclusive: 17.9% |
| CC1N(C)c2cc(NC(=O)c3ccco3)ccc2C1(C)C (stereo unspecified) | active: 145% |
| O=C(CCN1C(=O)/C(=C/c2cccs2)SC1=S)NNC(=O)c1cccc(O)c1 | inconclusive: 17.4% |
| CCOc1cc(-n2ncc(C#N)c2N)nc(SC)n1 | inconclusive: 20.2% |
| COC(=O)c1c(NC(=O)c2cccc(S(=O)(=O)N3CCN(C)CC3)c2)sc(C)c1C | inconclusive: 16.4% |
| O=C(Nc1cccnc1)c1cc(-c2ccc(Cl)cc2Cl)on1 | active: 62% |
| COc1ccc(CNC(=O)C(=O)NCc2ccncc2)cc1 | inactive: -3.85% |
| Cc1ccc(S(=O)(=O)CCC(=O)OCC(=O)NC(=O)c2ccccc2)cc1 | inconclusive: 22.6% |

| Structure (SMILES) | activation |
| --- | --- |
| Cc1cc(C)nc(SCC(=O)N/N=C/c2ccc3c(c2)OCO3)n1 | inconclusive: 16% |
| O=S(=O)(NN=Cc1ccc(O)cc1O)c1cc(Cl)c(Cl)cc1Cl | inactive: -2.1% |
| CCOc1ccc2nc(NC(=O)Cn3cnc4c3c(=O)n(C)c(=O)n4C)sc2c1 | inconclusive: 16.2% |
| CCOc1ccc(CCNC(=O)CCc2nc3ccccc3[nH]2)cc1OCC | inactive: -5.2% |
| CCOc1cc(CNCCO)cc(Br)c1OCc1ccc(Cl)cc1 | inconclusive: 17.4% |
| Cc1cccc(C)c1NC(=O)Cn1c(=O)c2cccn2c2ccccc21 | active: 29.1% |
| Cc1ccc(NC(=O)CSc2nc3ccc(Nc4nc(N5CCOCC5)nc(N5CCOCC5)n4)cc3s2)cc1 | inconclusive: 16.7% |
| CCc1cccc(CC)c1NC(=O)COC(=O)CCc1cc(OC)c(OC)c(OC)c1 | inactive: -7.58% |
| COc1cc(/C=C2\SC(=S)N(C(Cc3ccccc3)C(=O)O)C2=O)ccc1O (stereo unspecified) | active: 18.2% |
| Cc1ccccc1C(=O)Nc1ccnn1C1CCN(C(C)Cc2ccccc2F)CC1 (stereo unspecified) | inactive: -4.76% |
| O=C(Nc1ccc(N2CCN(C(=O)c3ccccc3)CC2)cc1)c1ccc(Br)o1 | inactive: -0.445% |
| COc1ccc(C(=O)OCC(=O)Nc2nc3c(F)c(F)c(F)cc3s2)cc1OC | inactive: 0.499% |
| COc1ccc2nc(C)cc(Nc3ccc(C(=O)O)cc3)c2c1 | inactive: -5.41% |
| COc1ccc(/C=N\NC(=O)COc2ccccc2Cl)cc1Cn1nc(C)cc1C | inconclusive: 22.3% |
| COc1cc(/C=C2\CC(C(C)(C)C)C/C(=C\c3cc(OC)c(OC)c(OC)c3)C2=O)cc(OC)c1OC (stereo unspecified) | inactive: -15.6% |
| Cc1ccc(-c2csc(NC(=O)c3ccc4c(=O)n5c(nc4c3)CCCCC5)n2)cc1 | inconclusive: 16.4% |
| COc1ccc(-c2cc(C)no2)cc1S(=O)(=O)N1CCOc2ccc(Cl)cc21 | inconclusive: 17.5% |
| CC#C[C@]1(O)CC[C@H]2[C@@H]3CCC4=CC(=O)CCC4=C3[C@@H](c3ccc(N(C)C)cc3)C[C@@]21C | inactive: -3.19% |
| Cc1ccccc1NC(=S)NCc1ccc2c(c1)cc(C)n2C | inactive: -6.19% |
| COc1cc2c3nnc(-c4ccc(F)cc4)c-3cn(Cc3ccc(C)cc3)c2cc1OC | inconclusive: 16.6% |
